In all, about 45,000 compounds went through this assay and about 65 (0.1%) were called active. Calls follow the shape of the dose curve; as a rule, active = well fitted activation curve with a large enough effect; inconclusive = small, poorly fitted or top-dose-only effect; inactive = no such curve, though single readings can be large or run the other way. This is one part of the list.

UniProt P54803, sequence (P54803 whole entry, looked up): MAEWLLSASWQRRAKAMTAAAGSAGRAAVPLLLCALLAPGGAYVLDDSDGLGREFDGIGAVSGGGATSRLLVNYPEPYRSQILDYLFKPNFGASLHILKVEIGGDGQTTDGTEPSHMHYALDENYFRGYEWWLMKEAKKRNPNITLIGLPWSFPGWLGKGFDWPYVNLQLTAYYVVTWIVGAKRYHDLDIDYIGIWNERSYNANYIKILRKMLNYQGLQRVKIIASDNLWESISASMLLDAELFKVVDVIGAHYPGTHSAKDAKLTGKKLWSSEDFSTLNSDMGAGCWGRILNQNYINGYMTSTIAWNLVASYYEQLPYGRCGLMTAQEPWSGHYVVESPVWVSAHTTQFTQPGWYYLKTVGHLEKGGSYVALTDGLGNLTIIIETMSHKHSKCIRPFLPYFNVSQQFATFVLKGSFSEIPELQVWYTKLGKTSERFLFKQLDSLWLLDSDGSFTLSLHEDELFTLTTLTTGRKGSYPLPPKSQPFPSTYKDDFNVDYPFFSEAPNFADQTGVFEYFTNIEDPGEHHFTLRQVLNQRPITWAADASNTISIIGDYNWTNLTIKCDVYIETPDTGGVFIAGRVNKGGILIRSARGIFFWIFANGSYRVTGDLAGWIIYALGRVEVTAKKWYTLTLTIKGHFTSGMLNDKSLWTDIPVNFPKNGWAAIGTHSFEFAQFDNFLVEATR

The target of this assay is Galactocerebrosidase (Homo sapiens) (UniProt P54803). The experiment in a line: A Novel Cell-Based Assay to Identify Small Molecules for B -Galactocerebrosidase. Also: 0% is about no effect; nearly all actives have a fitted effect of over 65% in size. Conditions: 145M-Twi-hGALC-G270D cells (Twitcher mouse brain line with human GALC G270D), HMU-beta-Gal fluorescence, 48 h; series mostly up to 57.5 µM; activation: at the top concentration. An outline of the steps:
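Live 145M-Twi cells (Twitcher mouse brain-derived, GALC-null) stably expressing human GALC-G270D, with a wild-type GALC line, were compound-treated. Residual GALC activity was then read as fluorescence from 0.1 mM final HMU-β-gal at pH 5.2; higher signal means activation.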
With `COc1ccc(-c2nc(CS(=O)(=O)CC(=O)NCc3ccccc3Br)c(C)o2)cc1`, the “activation” value was inactive: -13.7%.
Turning to `O=C(NCCCN1CCCCCC1)c1ccc2c(c1)sc1nc(-c3ccccc3)cn12`, the “activation” value was inactive: 13%.
Under `COc1cccc(NC(=O)Cn2c(=O)n(CCC(=O)NCCc3ccc(Cl)cc3)c(=O)c3ccccc32)c1` stands inactive: -6.47%; under `CCOC(=O)c1c(NC(=O)COc2ccc(Cl)cc2C)sc2c1CCCCC2`, inactive: -23.4%; under `COc1cc(-c2noc(-c3ccc(NCC4CCCO4)c([N+](=O)[O-])c3)n2)cc(OC)c1OC` (configuration not stated), inactive: -3.07%.
For `COc1ccc(NC(=O)CC2C(=O)N(c3ccc(OC)cc3)C(=O)N2CCC2=CCCCC2)cc1` (configuration not stated), the “activation” value is inactive: -9.66%.
Under `Cc1ccc(C)c(Nc2cc(C(=O)NC3CCCC3)c3ccccc3n2)c1` stands inactive: -1.34%; under `COc1ccc(CCNC(=O)Cc2c(C)c3cc4c(C(C)(C)C)coc4c(C)c3oc2=O)cc1`, inactive: -9.13%; under `Cl/C(=C\n1cncn1)c1ccc(Cl)cc1Cl`, inactive: -7.18%.
Under `COc1cc(NC(=O)CSc2nc3ncccc3o2)cc(OC)c1` stands inactive: -17%.
Under `CC(C)(C)C1CCc2c(sc(NC(=O)Cn3nnc(-c4ccccc4F)n3)c2C#N)C1` (configuration not stated) stands inactive: -10.7%.
`CCOC(=O)c1cc(-c2ccccc2)n(-c2cccc(C(=O)Nc3ccc(OC)cc3)c2)c1C`: the “activation” value is inactive: -9.93%.
For `CCOc1ccc(N(C(=O)Cn2nnc3ccccc32)C(C(=O)NCc2ccccc2)c2ccc(OC)cc2)cc1` (configuration not stated), the “activation” value was inactive: -12.6%.
For `O=C(Cn1c(=O)c2cccn2c2ccccc21)Nc1cc(F)ccc1F` the value was inactive: -13.8%; for `COc1ccc(N2CCN(C(=O)c3cn(CC(C)C)c(=O)c4c3c3ccccc3n4C)CC2)cc1`, inactive: -23.7%; for `CC(=O)NCc1c(I)c(NC(C)=O)c(I)c(C(=O)O)c1I`, inactive: -16.1%.
For `CCc1ccc(-c2nn(CC(=O)Nc3ccccc3)c3c2cnc2ccc(F)cc23)cc1` the value was inactive: -8.75%; for `CCN(CC)CCNC(=O)c1cn(CC)c2ccc(S(=O)(=O)N3CCOCC3)cc2c1=O`, inactive: -18%.
Consider `Cc1ccc(CCNC(=O)Cn2nc(-c3ccc(C)cc3)ccc2=O)cc1`, for which the “activation” value was inactive: -15.1%.
As to `COc1ccc(OCC(=O)OCc2cc(=O)n3nc(C4CCCCC4)sc3n2)cc1`, the “activation” value was inactive: -13.7%.
For `CC(=O)Nc1cccc(NC(=O)C(=O)NCCc2sc(-c3ccccc3)nc2C)c1` the value was inactive: -19.3%; for `COc1ccc(-c2[nH]ncc2C(=O)NCc2ccccc2C)cc1`, inactive: -14.9%.
As to `CCC(C(=O)NCCc1ccc(SC)cc1)n1nc(C)c2sc3ccccc3c2c1=O` (configuration not stated), the “activation” value was inactive: -6.91%.
For `Cc1onc(-c2ccccc2Cl)c1C(=O)Oc1cc(F)cc(F)c1` the value was inactive: -26.6%; for `COC(=O)c1ccccc1NC(=O)Cn1c(=O)n(-c2cccc(OC)c2)c(=O)c2c(C)c(C(=O)N(C)C)sc21`, inactive: -7.41%; for `CC(=O)N1CCCc2cc(S(=O)(=O)N3CCC(C(=O)NCc4ccc(C)cc4)CC3)ccc21`, inactive: -8.4%.
For `O=C(c1ccc2c(c1)N(Cc1ccc(F)cc1)C(=O)c1ccccc1S2=O)N1CCC(Cc2ccccc2)CC1` (configuration not stated) the value was inactive: -11.1%; for `O=C(Cn1ncc2ccc(Cl)cc21)NCc1ccc(F)cc1`, inactive: -12.3%.
As for `OCc1c[nH]c2ccccc12`, the “activation” value was inactive: -4.14% [at 114 µM].
Under `Cc1ccc(C)c(NC(=O)CSc2ncc(S(=O)(=O)c3ccc(C)c(Cl)c3)c(=O)[nH]2)c1` stands inactive: -9.75%.
Turning to `Cc1c(Cl)cccc1NC(=O)Nc1nnc(N2CCCCCC2)s1`, the “activation” value was inactive: -22.9%.
For `Cc1ccc(C(=O)Nc2cccc(C(=O)O)c2)cc1S(=O)(=O)N1CCCC1` the value was inactive: -10.6%.
For the molecule `CCc1ccc(CNC(=O)c2ccc(NC(=O)N3CCCCc4ccccc43)cc2)cc1`, the “activation” value is inactive: -11.3%.
Under `COc1ccc(Cn2c(SCc3ccc(C(=O)NC(C)C)cc3)nc3cccnc32)cc1` stands inactive: -15.8%; under `COc1ccccc1NC(=O)c1cccc(S(=O)(=O)N2CCCCCC2)c1`, inactive: 12.5%.
Under `CCC1CN(C(=O)N2CCC(C(=O)NCc3cccc(C)c3)CC2)c2ccccc2O1` (configuration not stated) stands inactive: -12.1%; under `CCOc1ccccc1N(CC)C(=O)c1cc2c(=O)[nH]c3ccc(C)cc3c2s1`, inactive: -14.4%.
Consider `COC(=O)c1scc(-c2ccc(C)cc2)c1S(=O)(=O)Nc1cc(OC)c(OC)c(OC)c1`, for which the “activation” value is inactive: -9.16%.
For `COc1ccc(CNC(=O)c2c3c(nc4ccccc24)C(=O)N(C2CCCCC2)C3)c(OC)c1` the value was inactive: -21%; for `O=C(Cn1c(=O)nc(-c2ccccc2F)c2cc(Cl)ccc21)N1CCN(c2ccccc2F)CC1`, inactive: -21%; for `CCCCC(CC)CNC(=O)CN1C(=O)CSc2ccc(S(=O)(=O)N3CCOCC3)cc21` (configuration not stated), inactive: 4.83%.
In the case of `CCN(c1cccc(C)c1)S(=O)(=O)c1ccc2[nH]cc(C(=O)NCCCOC)c(=O)c2c1`, the “activation” value was inactive: 0.0925%.
Under `CC(=O)Nc1nonc1-c1nnc(SCC(=O)N(C)c2ccccc2)n1C` stands inactive: -9.9%; under `O=C(Cn1cc(S(=O)(=O)Cc2cccc(Cl)c2)c2ccccc21)NCCc1ccccc1`, inactive: -10.3%.
For `Clc1cccc(-n2ncc3c(N4CCCCC4)ncnc32)c1` the value was inactive: -14.6%; for `Cc1ccc(NC(=O)/C(C#N)=C/c2ccc(C(C)C)cc2)cc1C`, inactive: -12.6%; for `CCOC(=O)c1cnc2c(C)c(Cl)ccc2c1NCCc1ccccc1`, inactive: -6.73%.
For `COc1ccc(CNC(=O)C(=O)Nc2ccc(OC)cc2OC)cc1` the value was inactive: -10.9%.
On to `O=C(COc1ccccc1Cl)NCC1(N2CCOCC2)CCCCC1`, for which the “activation” value was inactive: 0.21%.
For `COc1cc(OC)c(NC(=O)C2CCCN(c3ncnc4c3nc3n4CCCCC3)C2)cc1Cl` (configuration not stated) the value was inactive: -30.2%; for `CCc1ccc(OCC(=O)Nc2cc3oc4ccccc4c3cc2OC)cc1`, inactive: -0.727%; for `Cc1ccccc1-c1nc(CS(=O)(=O)CC(=O)NCC(C)c2ccccc2)c(C)o1` (configuration not stated), inactive: -3.93%.
For the molecule `CCc1ccccc1NC(=O)Cn1c(=O)n(Cc2ccc3c(c2)OCO3)c(=O)c2ccc(C(=O)NC3CCCCC3)cc21`, the “activation” value was inactive: -11.2%.
Under `CCN1CCN(CCCNC(=O)c2cc3c(=O)n(C)c4ccccc4c3s2)CC1` stands inactive: -15.4%.
Regarding `O=C(NCCc1ccccc1)c1cnc2sc(N3CCCC3)nn2c1=O`, the “activation” value was inactive: -6.73%.
For `CCCc1nn2c(=O)cc(COC(=O)c3cccc(NC(=O)COc4ccccc4C)c3)nc2s1` the value was inactive: -28.3%; for `Cc1c(NC(=O)c2cccnc2)c(=O)n(-c2ccccc2)n1C`, inactive: -16%.
For `COCCCNC(=O)c1oc2c(c1C)-c1nn(Cc3cccc(Cl)c3)cc1CC2` the value was inactive: -34%; for `COc1ccccc1N1CCN(C(=O)c2nn(-c3ccc(C)cc3)c(=O)n(C)c2=O)CC1`, inactive: -1.98%; for `COC(=O)C1=C(CS(=O)(=O)c2cc(Cl)ccc2OC)NC(=O)NC1c1ccccc1` (configuration not stated), inactive: 18.3%.
Regarding `CCCCOc1ccc(C(=O)N2CCN(CCc3ccncc3)CC2)cc1`, the “activation” value was inactive: -19.3%.
Consider `CC(=O)c1c(C)nc2nc(-c3ccccc3)nn2c1C`, for which the “activation” value was inactive: -3.64%.
For the molecule `Cc1cc2nnc(SCC(=O)Nc3ccc(F)c(Cl)c3)n2c2ccccc12`, the “activation” value was inactive: -4.62%.
Under `COc1cc(NS(=O)(=O)c2ccc3c(c2)CCN3S(C)(=O)=O)cc(OC)c1` stands inactive: -24.9%.
Under `CCOC(=O)c1ccc(Nc2c(-c3ccc(O)c(OC)c3)nc3nc[nH]n23)cc1` stands inactive: -5.57%; under `Cc1cc(F)ccc1S(=O)(=O)NCC(c1ccco1)S(=O)(=O)c1cccs1` (configuration not stated), inactive: -16.9%.
As to `Cc1ccc(CNC(=O)C2CCCN(S(=O)(=O)c3cccc4nsnc34)C2)cc1` (configuration not stated), the “activation” value was inactive: -18.6%.
Under `CCc1ccc2c(c1)c(=O)c(S(=O)(=O)c1ccc(F)cc1)cn2CC(=O)Nc1ccc(C)cc1C` stands inactive: 1.39%.
For `CCCn1ccc2c(OCC(=O)NCc3ccc(C)cc3)cccc2c1=O` the value was inactive: -0.527%; for `CCc1nn2c(=O)cc(COC(=O)c3cccc(NC(=O)c4ccccc4Cl)c3)nc2s1`, inactive: -9.7%; for `CS(=O)(=O)OCCCCOS(C)(=O)=O`, inactive: -20.5%.
Regarding `Cc1cc2ncn(CCCCOc3ccccc3)c2cc1C`, the “activation” value is inactive: -9.35%.
For `Cc1cccc(NC(=O)c2ccc(N(Cc3ccccc3)S(C)(=O)=O)cc2)c1` the value was inactive: -11.5%.
`CCN(CCCNC(=O)c1cc2c(=O)n(C)c3ccccc3c2s1)Cc1ccccc1`: the “activation” value was inactive: -14.9%.
Regarding `Cc1ccc2c(c1)C(c1ccc(F)cc1)N(C(=O)COc1ccc(Cl)cc1Cl)CC(=O)N2` (configuration not stated), the “activation” value was inactive: -2.78%.
Under `COc1ccc(CNC(=O)c2cnc3sc(N4CCCC4)nn3c2=O)cc1OC` stands inactive: 6.62%; under `O=C(CSc1c2c(nc3ccc(Cl)cc13)CCCC2)N1CCN(c2cccc(Cl)c2)CC1`, inactive: -11.1%.
Under `Cc1ccc(C(=O)NCc2ccc(N(C)C)cc2)cc1NC(=O)c1nsc2ccccc12` stands inactive: -15.5%; under `CCOC(=O)c1cccc(NC(=O)CN2C(=O)c3ccccc3Sc3ncccc32)c1`, inactive: -10.8%.
For `CC1CCC(NC(=O)c2ccc3c(c2)N(Cc2ccccc2)C(=O)c2ccccc2S3=O)CC1` (configuration not stated), the “activation” value is inactive: 2.06%.
In the case of `CCOC(=O)c1c(C)[nH]c(CCC(=O)Nc2cc(C)ccc2OC)c1C`, the “activation” value was inactive: -19.4%.
For `COc1cc(-c2nnn(CC(=O)Nc3ccc(OC(F)(F)F)cc3)n2)cc(OC)c1OC` the value was inactive: -31.7%.
For `Cc1cccn2c(=O)c(C(=O)NCCCN3CCCCC3C)c(O)nc12` (configuration not stated), the “activation” value is inactive: -6.45%.
Under `Cc1cc2oc(C(=O)Nc3c(C(=O)Nc4ccccc4)oc4ccccc34)cc(=O)c2cc1C` stands inactive: 24.3%.
Under `Cc1cccc(C)c1NC(=O)c1oc2ccc3c(c2c1C)C(=O)CC(C)(C)O3` stands inactive: -0.976%.
For `COc1ccccc1CNC(=O)C1CCCN(S(=O)(=O)c2ccc3c(c2)CCCN3C(C)=O)C1` (configuration not stated) the value was inactive: -15.1%; for `O=C(Cn1ncc2c1-c1ccccc1OC2)N1CCN(c2ccccc2F)CC1`, inactive: -20.8%.
For the molecule `Cc1nnc(NCc2ccccc2)c2c1nnn2Cc1ccccc1Cl`, the “activation” value was inactive: -16.1%.
As to `CN1C(C(=O)Nc2ccc(F)cc2F)=CC(c2ccco2)=NS1(=O)=O`, the “activation” value is inactive: -16.3%.
For `O=C(CSCc1ccccc1Cl)N1CCN(c2ccc(F)cc2)CC1` the value was inactive: -19.3%; for `COc1ccccc1N1CCN(C(=O)c2cc(S(=O)(=O)N3CCC(C)CC3)cn2C)CC1`, inactive: -1.45%.
For `COc1ccc(-c2nc(CNC(=O)Nc3ccccc3)c(C)o2)cc1` the value was inactive: -23.4%; for `CCCN(c1ccc(C(C)C)cc1)S(=O)(=O)c1ccc2c(c1)oc(=O)n2CC(=O)OCC`, inactive: -18.2%; for `COc1cccc(Cn2c(CNS(=O)(=O)c3ccc(C(C)(C)C)cc3)nc3cccnc32)c1`, inactive: -3.68%.
Under `COc1ccc(-n2c(=O)c3ccccc3n(Cc3cccc(C)c3)c2=O)cc1` stands inactive: -26.9%.
Consider `COc1ccccc1N1CCN(CCCCNC(=O)c2ccc(-c3ccc(C(C)=O)cc3)cc2)CC1`, for which the “activation” value is inactive: -2.83%.
For `Cc1ccccc1N(C)S(=O)(=O)c1nnc(NC(=O)C(C)C)s1` the value was inactive: -12.8%.
